Measured values from patent publication US12692294B2, “Engineered NRG-1 variants with improved selectivity toward ErbB4 but not against ErbB3” (Amgen Inc., priority 2021, dated 2026).
Changes are numbered by the printed parent chain. Names may count otherwise. “And” between values parts separate entries of the source, which are not always exact repeats. Equal entries are not always repeated. One block for each molecule: values may come before it.

Key:
[1] = molecular target: T1, ErbB4 (Rattus norvegicus, UniProt Q62956); experiment: In vitro phosphorylation of Akt in neonatal rat cardiomyocytes; type: cell-based; details: for EC50: Akt (Serine 473) phosphorylation, neonatal rat cardiomyocytes, 15 minutes treatment, read-out: Cardiomyocyte (CM) (ErbB4) Avg EC50; for Selectivity SC/CM: ratio of EC50s Schwann cells/cardiomyocytes; for CM % Agonism AVG: top value of the Akt phosphorylation data points in cardiomyocytes, wild-type control 100
T1 construct: forming the ErbB2/ErbB4 complex in cardiomyocytes and the ErbB2/ErbB3 complex in Schwann cells; endogenous in cells; host or cells: primary neonatal rat cardiomyocytes (Sprague Dawley pups, 0 to 4 days old)
Method: (§1) In Vitro Phosphorylation of Akt in Neonatal Rat Cardiomyocytes and Rat Schwann Cells by Neuregulin Variants
(§2) Specificity of neuregulin variants towards cardiomyocytes (ErbB4) versus Schwann cells (ErbB3) was tested by measuring Akt activity generated by formation of the ErbB2/ErbB4 and ErbB2/ErbB3 complexes. Upon activation by neuregulin, the ErbB4 and ErbB3 receptors dimerize preferentially with the ErbB2 co-receptor, forming the ErbB2/ErbB4 complex in cardiomyocytes and the ErbB2/ErbB3 complex in Schwann cells, both of which signal through the Akt pathway. Neonatal rat cardiomyocytes were isolated from hearts of Sprague Dawley rat pups at 0 to 4 days old according to manufacturer's protocol using the Neomyt kit and plated on Surecoat plates in NS media containing serum (all from Cellultron Life Technologies, Baltimore, MD). Rat Schwann cells were plated in Poly-D-Lysine coated plates with Dulbecco's modified Eagle's media (DMEM) supplemented with fetal bovine serum (Thermo Fisher) and forskolin (Millipore Sigma).
(§3) After a 24-hour incubation in a humidified incubator maintained at 37° C. and 5% CO2, cardiomyocytes and Schwann cells were washed with serum free media and incubated an additional 16 hours in DMEM supplemented with bovine serum albumin (Sigma). Both cell lines were then treated with titrations of the neuregulin variant molecules for 15 minutes, upon which cells were lysed in lysis buffer (Meso Scale Discovery (MSD)). For detection of Akt phosphorylation, lysates were added to the Multi-Spot 96-Well 4-Spot Phospho (Serine 473)/Total Akt plates (MSD), incubated according to the manufacturer's protocol and read in the SECTOR Imager 6000 (MSD). For both cell assays, the percent phosphorylation of Akt was calculated by multiplying the phospho Akt signal by 2, then dividing by the phospho Akt signal added to the total Akt signal and then multiplying by 100. The phosphorylation of Akt data points were fitted using a log (agonist) versus response, variable slope (4 parameters) analysis in GraphPad Prism to generate EC50 curves. The CM % agonism reflect the top value of the data points.

[2] = molecular target: T2, ErbB3 (Rattus norvegicus, UniProt Q62799); experiment: In vitro phosphorylation of Akt in rat Schwann cells; type: cell-based; details: Akt (Serine 473) phosphorylation, 15 minutes treatment, read-out: Schwann cells (SC) (ErbB3) Avg EC50
T2 construct: forming the ErbB2/ErbB4 complex in cardiomyocytes and the ErbB2/ErbB3 complex in Schwann cells; endogenous in cells; host or cells: rat Schwann cells
Method: as §1, §2, §3

T1 sequence (Q62956 26-1308): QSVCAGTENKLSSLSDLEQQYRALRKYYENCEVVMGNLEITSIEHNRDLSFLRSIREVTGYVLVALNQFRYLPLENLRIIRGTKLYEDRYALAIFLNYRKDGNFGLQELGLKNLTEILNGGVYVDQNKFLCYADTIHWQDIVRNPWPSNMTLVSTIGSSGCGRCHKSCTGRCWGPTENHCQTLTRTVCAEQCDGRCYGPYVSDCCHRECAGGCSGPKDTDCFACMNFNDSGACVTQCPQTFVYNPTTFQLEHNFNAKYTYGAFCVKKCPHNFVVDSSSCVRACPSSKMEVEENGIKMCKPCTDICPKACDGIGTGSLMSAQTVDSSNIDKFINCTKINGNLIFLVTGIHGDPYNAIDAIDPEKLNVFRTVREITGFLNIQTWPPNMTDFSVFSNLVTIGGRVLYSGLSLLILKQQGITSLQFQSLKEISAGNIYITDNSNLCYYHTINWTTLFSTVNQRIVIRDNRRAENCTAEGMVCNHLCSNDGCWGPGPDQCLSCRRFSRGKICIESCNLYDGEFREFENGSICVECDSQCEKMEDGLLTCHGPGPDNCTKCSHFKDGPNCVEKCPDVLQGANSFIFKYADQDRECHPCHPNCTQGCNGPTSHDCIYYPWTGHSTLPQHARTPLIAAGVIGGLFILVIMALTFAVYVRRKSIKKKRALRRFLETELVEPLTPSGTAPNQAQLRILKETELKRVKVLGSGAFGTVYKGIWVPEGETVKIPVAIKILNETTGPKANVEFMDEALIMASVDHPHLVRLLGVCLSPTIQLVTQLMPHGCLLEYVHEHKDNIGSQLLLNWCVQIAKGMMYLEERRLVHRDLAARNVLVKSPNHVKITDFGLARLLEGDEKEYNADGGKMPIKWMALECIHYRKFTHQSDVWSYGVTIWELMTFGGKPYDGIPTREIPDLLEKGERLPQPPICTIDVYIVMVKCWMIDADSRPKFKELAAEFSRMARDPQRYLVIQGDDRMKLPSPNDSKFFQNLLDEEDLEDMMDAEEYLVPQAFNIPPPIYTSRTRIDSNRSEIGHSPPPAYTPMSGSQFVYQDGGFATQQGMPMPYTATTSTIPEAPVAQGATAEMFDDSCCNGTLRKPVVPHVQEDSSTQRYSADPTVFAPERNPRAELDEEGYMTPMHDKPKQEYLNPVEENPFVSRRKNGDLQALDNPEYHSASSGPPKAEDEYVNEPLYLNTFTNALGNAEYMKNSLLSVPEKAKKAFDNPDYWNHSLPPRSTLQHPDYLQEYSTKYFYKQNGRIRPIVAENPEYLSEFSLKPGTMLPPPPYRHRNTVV
T1 sequence (P06494 23-1257 partner): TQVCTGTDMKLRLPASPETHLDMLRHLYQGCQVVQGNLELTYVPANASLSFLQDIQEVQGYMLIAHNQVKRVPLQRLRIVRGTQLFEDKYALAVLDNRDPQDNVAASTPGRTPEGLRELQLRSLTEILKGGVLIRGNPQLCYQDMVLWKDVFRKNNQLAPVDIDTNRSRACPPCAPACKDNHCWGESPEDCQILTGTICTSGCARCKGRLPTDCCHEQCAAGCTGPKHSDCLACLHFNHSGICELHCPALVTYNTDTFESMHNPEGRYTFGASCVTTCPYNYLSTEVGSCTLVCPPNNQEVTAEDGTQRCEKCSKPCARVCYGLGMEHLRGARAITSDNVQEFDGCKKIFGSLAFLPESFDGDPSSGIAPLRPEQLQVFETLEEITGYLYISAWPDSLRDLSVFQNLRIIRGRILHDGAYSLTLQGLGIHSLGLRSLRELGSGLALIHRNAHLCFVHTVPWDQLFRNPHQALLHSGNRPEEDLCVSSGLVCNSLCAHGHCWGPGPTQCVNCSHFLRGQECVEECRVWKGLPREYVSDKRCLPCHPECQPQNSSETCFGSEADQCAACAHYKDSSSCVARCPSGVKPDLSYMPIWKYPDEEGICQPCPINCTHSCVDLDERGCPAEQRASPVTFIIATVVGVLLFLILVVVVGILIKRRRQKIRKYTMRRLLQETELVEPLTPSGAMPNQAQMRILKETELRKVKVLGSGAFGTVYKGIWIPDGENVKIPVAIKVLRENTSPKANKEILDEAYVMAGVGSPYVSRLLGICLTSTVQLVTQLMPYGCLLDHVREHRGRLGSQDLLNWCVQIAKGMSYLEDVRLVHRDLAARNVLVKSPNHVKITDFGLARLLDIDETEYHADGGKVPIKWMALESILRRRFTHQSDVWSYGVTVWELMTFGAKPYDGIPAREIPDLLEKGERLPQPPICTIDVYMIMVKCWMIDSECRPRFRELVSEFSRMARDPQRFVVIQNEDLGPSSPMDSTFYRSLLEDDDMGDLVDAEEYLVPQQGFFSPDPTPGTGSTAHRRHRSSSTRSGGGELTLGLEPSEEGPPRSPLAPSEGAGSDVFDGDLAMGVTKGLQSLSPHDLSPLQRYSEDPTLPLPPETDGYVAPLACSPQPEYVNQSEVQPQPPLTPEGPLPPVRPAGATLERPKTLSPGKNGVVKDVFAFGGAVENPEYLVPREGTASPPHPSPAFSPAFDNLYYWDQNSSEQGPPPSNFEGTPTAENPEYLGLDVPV
T2 sequence (Q62799 20-1339): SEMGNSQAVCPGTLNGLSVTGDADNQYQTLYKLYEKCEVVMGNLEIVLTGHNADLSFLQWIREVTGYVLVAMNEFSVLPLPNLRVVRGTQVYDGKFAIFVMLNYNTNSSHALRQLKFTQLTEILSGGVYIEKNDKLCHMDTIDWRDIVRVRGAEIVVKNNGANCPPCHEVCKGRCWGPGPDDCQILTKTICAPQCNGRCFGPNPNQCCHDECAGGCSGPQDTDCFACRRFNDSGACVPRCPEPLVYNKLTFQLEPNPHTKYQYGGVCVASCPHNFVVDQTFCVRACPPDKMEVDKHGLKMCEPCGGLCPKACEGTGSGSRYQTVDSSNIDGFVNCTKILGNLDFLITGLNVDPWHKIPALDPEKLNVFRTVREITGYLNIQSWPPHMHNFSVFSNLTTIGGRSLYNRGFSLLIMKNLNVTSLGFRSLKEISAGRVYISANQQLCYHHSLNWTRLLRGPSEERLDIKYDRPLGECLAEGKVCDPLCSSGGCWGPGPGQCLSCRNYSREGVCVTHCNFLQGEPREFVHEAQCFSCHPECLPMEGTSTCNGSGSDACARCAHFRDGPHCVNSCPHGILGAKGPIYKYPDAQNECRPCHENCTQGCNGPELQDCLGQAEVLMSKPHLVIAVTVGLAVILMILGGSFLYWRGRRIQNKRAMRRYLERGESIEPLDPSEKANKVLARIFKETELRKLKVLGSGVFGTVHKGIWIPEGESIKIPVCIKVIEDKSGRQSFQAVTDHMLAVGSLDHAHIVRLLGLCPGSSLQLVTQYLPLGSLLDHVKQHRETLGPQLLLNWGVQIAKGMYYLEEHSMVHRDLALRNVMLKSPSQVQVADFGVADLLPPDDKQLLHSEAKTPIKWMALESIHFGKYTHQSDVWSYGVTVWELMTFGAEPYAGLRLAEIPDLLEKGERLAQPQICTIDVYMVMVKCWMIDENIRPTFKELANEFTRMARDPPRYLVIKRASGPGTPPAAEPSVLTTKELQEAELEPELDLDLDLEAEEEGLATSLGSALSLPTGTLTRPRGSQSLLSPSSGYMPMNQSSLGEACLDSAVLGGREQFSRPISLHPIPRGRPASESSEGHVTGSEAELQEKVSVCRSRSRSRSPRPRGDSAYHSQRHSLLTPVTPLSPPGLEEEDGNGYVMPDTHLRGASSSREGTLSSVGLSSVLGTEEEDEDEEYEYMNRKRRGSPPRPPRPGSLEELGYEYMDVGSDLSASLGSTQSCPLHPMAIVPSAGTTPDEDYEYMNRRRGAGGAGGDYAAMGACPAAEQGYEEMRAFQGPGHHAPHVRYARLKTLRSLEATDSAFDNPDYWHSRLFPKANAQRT
T2 sequence (P06494 23-1257 partner): as the sequence (P06494 23-1257 partner) above

B1: huNRG1(S177-F229)(NRGE1D)::1KmodT482V, M493L)::huFcSEFL2 (Pb): Fc fusion of NRG1 variant SEQ ID NO:126 (protein)
chain: SHLVKCGESHKSFCVNGGECYMVEGSSIPSRYLCKCPNEFTGDRCQEDFMASFGSGSATGGSGSVASSGSGSATHL[letters of human IgG1 Fc with R292C N297G V302C (EU numbers) not shown]
modifications: huNRG1(S177-F229) (NRGE1D)::1KmodT482V,M493L)::huFcSEFL2 (Pb)
EC50 [1]: 0.34 nM
Selectivity SC/CM [1]: >10000
CM % Agonism AVG [1]: 83.4%
EC50 [2]: > 10000 nM

B2: huNRG1(S177-F229)(NRGE1C)(NRGmod)::G4::huFcSEFL2 (Pb): Fc fusion of NRG1 variant SEQ ID NO:117 (protein)
chain: SHLVKCGEKHKSFCVNGGECFMIEGPSNPSRYLCKCPNEFTGDRCQEDFMASFAAAEELYQGGGG[letters of human IgG1 Fc with R292C N297G V302C (EU numbers) not shown]
modifications: huNRG1(S177-F229)(NRGE1C) (NRGmod)::G4::huFcSEFL2 (Pb)
EC50 [1]: 0.87 nM
Selectivity SC/CM [1]: >10000
CM % Agonism AVG [1]: 75.5%
EC50 [2]: > 10000 nM

B3: huNRG1(S177-F229)(NRGE1C)::(G4S)2::G4::huFcSEFL2 (Pb): Fc fusion of NRG1 variant SEQ ID NO:117 (protein)
chain: SHLVKCGEKHKSFCVNGGECFMIEGPSNPSRYLCKCPNEFTGDRCQEDFMASFGGGGSGGGGSGGGG[letters of human IgG1 Fc with R292C N297G V302C (EU numbers) not shown]
modifications: huNRG1(S177-F229) (NRGE1C)::(G4S)2::G4::huFcSEFL2 (Pb)
EC50 [1]: 0.62 nM
Selectivity SC/CM [1]: >10000
CM % Agonism AVG [1]: 79.4%
EC50 [2]: > 10000 nM

B4: huNRG1(S177-F229)(NRGE1C)(G4E)::G4S::G4::huFcSEFL2 (Pb): Fc fusion of NRG1 variant SEQ ID NO:117 (protein)
chain: B3 chain with S58E
modifications: huNRG1(S177-F229)(NRGE1C) (G4E)::G4S::G4::huFcSEFL2 (Pb)
EC50 [1]: 0.42 nM
Selectivity SC/CM [1]: >10000
CM % Agonism AVG [1]: 82.2%
EC50 [2]: > 10000 nM

B5: huNRG1(S177-F229)(NRGE1D)(G4E)::G4S::G4::huFcSEFL2 (Pb): Fc fusion of NRG1 variant SEQ ID NO:126 (protein)
chain: B3 chain with K9S, F21Y, I23V, P26S, N28I, S58E
modifications: huNRG1(S177-F229)(NRGE1D) (NRGmod)::G4::huFcSEFL2 (Pb)
EC50 [1]: 0.35 nM
Selectivity SC/CM [1]: >10000
CM % Agonism AVG [1]: 85%
EC50 [2]: > 10000 nM

B6: huNRG1(S177-F229)(NRGE1D)::(G4A)2:G4::huFcSEFL2 (Pb): Fc fusion of NRG1 variant SEQ ID NO:126 (protein)
chain: B3 chain with K9S, F21Y, I23V, P26S, N28I, S58A, S63A
modifications: huNRG1(S177-F229)(NRGE1D)::(G4A)2G4::huFcSEFL2 (Pb)
EC50 [1]: 0.32 nM
Selectivity SC/CM [1]: >10000
CM % Agonism AVG [1]: 78.8%
EC50 [2]: > 10000 nM

B8: huNRG1(S177-Q237)(_200E)::GG::huFcSEFL2 (Pb): Fc fusion of NRG1 variant SEQ ID NO:172 (protein)
chain: SHLVKCAEKEKTFCVNGGECFMVEDLSNPSRYLCKCPNEFTGDRCQNYVMASFYKAEELYQGG[letters of human IgG1 Fc with R292C N297G V302C (EU numbers) not shown]
modifications: huNRG1(S177-Q237)(_200E)::GG::huFcSEFL2 (Pb)
EC50 [1]: 0.452 nM
Selectivity SC/CM [1]: 11
CM % Agonism AVG [1]: Full
EC50 [2]: 4.82 nM

B10: huNRG1(S177-Q237)(_FVIEDPSI)::GG::huFcSEFL2 (Pb): Fc fusion of NRG1 variant SEQ ID NO:174 (protein)
chain: B8 chain with M22V, V23I, L26P, N28I
modifications: huNRG1(S177-Q237)(_FVIEDPSI)::GG::huFcSEFL2 (Pb)
EC50 [1]: 0.177 nM
Selectivity SC/CM [1]: 24
CM % Agonism AVG [1]: Full
EC50 [2]: 4.27 nM

B11: huNRG1(S177-F229)(NRGE1D)::3x(G4Q)::huFcSEFL2 (Pb): Fc fusion of NRG1 variant SEQ ID NO:126 (protein)
chain: SHLVKCGESHKSFCVNGGECYMVEGSSIPSRYLCKCPNEFTGDRCQEDFMASFGGGGQGGGGQGGGGQ[letters of human IgG1 Fc with changes not shown]
modifications: huNRG1(S177-F229) (NRGE1D)::1KmodT482V,M493L)::huFcSEFL2 (Pb)
EC50 [1]: 0.29 nM and 0.3 nM
Selectivity SC/CM [1]: 1401 and 1491
CM % Agonism AVG [1]: 74.4%
EC50 [2]: 410 nM and 446 nM

B14: huNRG1(S177-Q237)(3H8)::GG::huFcSEFL2 (Pb): Fc fusion of NRG1 variant SEQ ID NO:171 (protein)
chain: B8 chain with A7G, E10H, T12S, F21Y, D25G, L26S, N28I, N47E, Y48D, V49F
modifications: huNRG1(S177-Q237)(3H8)::GG::huFcSEFL2 (Pb)
EC50 [1]: 0.276 nM
Selectivity SC/CM [1]: >10000
CM % Agonism AVG [1]: Full
EC50 [2]: > 10000 nM

Further molecules by falling EC50 [1], results first:

EC50 [1]: 33.6 nM
Selectivity SC/CM [1]: 89
CM % Agonism AVG [1]: Full
EC50 [2]: 3000 nM
B15: huNRG1(S177-Q237)(v80.3)::GG::huFcSEFL2 (Pb): Fc fusion of NRG1 variant SEQ ID NO:176 (protein)
chain: SHLVKCAERHKSFCVNGGECFVIEGSSIPSRYLCKCPNEFTGDRCEKDVMASFYKAEELYQGG[letters of human IgG1 Fc with R292C N297G V302C (EU numbers) not shown]
modifications: huNRG1(S177-Q237)(v80.3)::GG::huFcSEFL2 (Pb)

EC50 [1]: 2 nM
Selectivity SC/CM [1]: 60
CM % Agonism AVG [1]: Full
EC50 [2]: 121 nM
B9: huNRG1(S177-Q237)()200E_KDF)::GG::huFcSEFL2 (Pb): Fc fusion of NRG1 variant SEQ ID NO:173 (protein)
chain: B8 chain with N47K, Y48D, V49F
modifications: huNRG1(S177-Q237)(_200E_KDF)::GG::huFcSEFL2 (Pb)

EC50 [1]: 1.27 nM
Selectivity SC/CM [1]: >7800
CM % Agonism AVG [1]: Full
EC50 [2]: > 10000 nM
B12: huNRG1(S177-Q237)(3H5)::GG::huFcSEFL2 (Pb): Fc fusion of NRG1 variant SEQ ID NO:168 (protein)
chain: B15 chain with A7G, F21Y, I23V, G25R, S26P, Y32F, E46Q, V49F, M50L
modifications: huNRG1(S177-Q237)(3H5)::GG::huFcSEFL2 (Pb)

EC50 [1]: 0.998 nM
Selectivity SC/CM [1]: 7
CM % Agonism AVG [1]: Full
EC50 [2]: 6.65 nM
B13: huNRG1(S177-Q237)(v80)::GG::huFcSEFL2 (Pb): Fc fusion of NRG1 variant SEQ ID NO:175 (protein)
chain: B15 chain with R9S, E46Q
modifications: huNRG1(S177-Q237)(v80)::GG::huFcSEFL2 (Pb)

EC50 [1]: 0.46 nM
Selectivity SC/CM [1]: >10000
CM % Agonism AVG [1]: 80.5%
EC50 [2]: > 10000 nM
B7: huNRG1(S177-F229)(NRGE1D)::(G4S)2::G4::huFcSEFL2 (Pb): Fc fusion of NRG1 variant SEQ ID NO:126 (protein)
chain: B3 chain with K9S, F21Y, I23V, P26S, N28I
modifications: huNRG1(S177-F229)(NRGE1D) (G4E)::G4S::G4::huFcSEFL2 (Pb)
